# From the supplement of paper PMC4967469
# pIC50: −log10 of the molar value. Lines with a small IC50 respond at low doses; fits outside the tested doses are given as limits. The AUC spans the tested range (256-fold, ending at the top dose) of the same fit: 1 means no effect, lower means more sensitive. For some of these results: An inferred top dose was derived from the fitted curves, not read from the paper. For some of these results: Where an entry number is given, a second screen of the drug exists; the two often differ.
# Experiments:
# Assay in all cases: Viability of human cancer cell lines after 72 h of drug (GDSC screen)
# Y-39983 = compound: C[C@@H](N)c1ccc(C(=O)Nc2ccnc3[nH]ccc23)cc1 [Y-39983]; settings: top dose 20 µM; top dose inferred
# Experimental: (§1)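 Human cancer cell lines in 384-well plates, medium with 10% serum, drug for 72 h over a 256-fold dose range (nine 2-fold or five 4-fold steps up to the top dose). Adherent lines were fixed and stained with the nucleic acid dye Syto60, suspension lines read with resazurin; signal relative to control wells, capped at 0 and 100%. One two-parameter sigmoid per drug and line, fitted in a mixed model over all curves with the slope shared within a line.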
# PLX4720 = compound: CCCS(=O)(=O)Nc1ccc(F)c(C(=O)c2c[nH]c3ncc(Cl)cc23)c1F [PLX4720]; settings: top dose 10 µM
# Experimental: as §1
# AZD-0530 = compound: CN1CCN(CCOc2cc(OC3CCOCC3)c3c(Nc4c(Cl)ccc5c4OCO5)ncnc3c2)CC1 [AZD-0530]; settings: top dose 2 µM
# Experimental: as §1
# Pyrimethamine = compound: CCc1nc(N)nc(N)c1-c1ccc(Cl)cc1 [Pyrimethamine]; settings: top dose 20 µM; top dose inferred
# Experimental: as §1
# TPCA-1 = compound: NC(=O)Nc1sc(-c2ccc(F)cc2)cc1C(N)=O [TPCA-1]; settings: top dose 20 µM
# Experimental: as §1
# PHA-793887 = compound: CC(C)CC(=O)Nc1n[nH]c2c1CN(C(=O)C1CCN(C)CC1)C2(C)C [PHA-793887]; settings: top dose 10.24 µM
# Experimental: as §1
# Epothilone B = compound: C/C(=C\c1csc(C)n1)[C@@H]1C[C@@H]2O[C@]2(C)CCC[C@H](C)[C@H](O)[C@@H](C)C(=O)C(C)(C)[C@@H](O)CC(=O)O1 [Epothilone B]; settings: top dose 0.032 µM; top dose inferred
# Experimental: as §1
# [1] = screen: GDSC drug entry 1371, top dose inferred
Cell Line,AUC (Y-39983),pIC50 (Y-39983),AUC (PLX4720; screen: GDSC drug entry 1036),pIC50 (PLX4720; screen: GDSC drug entry 1036),AUC (PLX4720; [1]),AUC (AZD-0530),pIC50 (AZD-0530),AUC (Pyrimethamine),pIC50 (Pyrimethamine),AUC (TPCA-1),pIC50 (TPCA-1),AUC (PHA-793887),pIC50 (PHA-793887),AUC (Epothilone B),pIC50 (Epothilone B),pIC50 (PLX4720; [1])
"8-MG-BA (glioma, adherent)",0.94,< 4.70,0.844,5.19,0.838,0.983,< 5.70,0.876,4.75,0.883,4.72,0.659,5.77,0.587,8.47,–
"697 (lymphoblastic leukaemia, suspension)",0.83,5.03,0.816,5.38,0.94,0.963,< 5.70,0.532,5.82,0.293,6.43,0.119,7.24,0.484,8.74,< 5.00
"A3-KAW (B-cell lymphoma, suspension)",0.827,5.05,0.993,< 5.00,0.94,0.991,< 5.70,0.808,5.10,0.227,6.60,0.182,7.02,0.704,8.19,< 5.00
"A4-Fuk (B-cell lymphoma, suspension)",0.904,< 4.70,0.874,< 5.00,0.955,0.982,< 5.70,0.853,4.78,0.853,4.78,0.965,< 4.99,0.436,8.88,< 5.00
"A101D (melanoma, adherent)",0.971,< 4.70,0.501,6.20,0.708,0.971,< 5.70,0.922,< 4.70,0.903,< 4.70,0.981,< 4.99,0.408,8.98,5.55
"A253 (head and neck, adherent)",0.988,< 4.70,0.989,< 5.00,0.987,0.976,< 5.70,0.902,< 4.70,0.97,< 4.70,0.869,5.05,0.751,–,< 5.00
"A388 (skin, adherent)",0.973,< 4.70,0.906,< 5.00,0.962,0.918,< 5.70,0.917,< 4.70,0.912,< 4.70,0.904,< 4.99,0.417,8.94,< 5.00
"A498 (kidney, adherent)",0.975,< 4.70,0.94,< 5.00,0.975,0.978,< 5.70,0.969,< 4.70,0.965,< 4.70,0.953,< 4.99,0.849,< 7.49,< 5.00
"ALL-SIL (T-cell leukaemia, suspension)",0.871,4.84,0.96,< 5.00,0.947,0.57,6.73,0.916,< 4.70,0.605,5.63,0.665,5.77,0.396,8.97,< 5.00
"ARH-77 (myeloma, suspension)",0.919,< 4.70,0.97,< 5.00,0.957,0.937,< 5.70,0.871,4.75,0.579,5.69,0.532,6.11,0.679,8.21,< 5.00
"BB30-HNC (head and neck, adherent)",0.975,< 4.70,0.939,< 5.00,0.969,0.808,6.00,0.895,< 4.70,0.814,4.97,0.866,5.05,0.304,9.24,< 5.00
"BB49-HNC (head and neck, adherent)",0.81,4.79,0.952,< 5.00,0.919,0.881,< 5.70,0.94,< 4.70,0.899,< 4.70,0.976,< 4.99,0.876,< 7.49,< 5.00
"BC-1 (B-cell lymphoma, suspension)",0.867,4.86,0.979,< 5.00,0.801,0.987,< 5.70,0.751,5.24,0.624,5.59,0.343,6.60,0.509,8.68,5.39
"BE2-M17 (neuroblastoma, adherent)",0.982,< 4.70,0.984,< 5.00,0.976,0.941,< 5.70,0.987,< 4.70,0.937,< 4.70,0.93,< 4.99,0.903,< 7.49,< 5.00
"BE-13 (lymphoblastic leukaemia, suspension)",0.428,6.09,0.822,5.27,0.946,0.87,5.78,0.751,5.21,0.453,6.03,0.666,5.75,0.684,8.20,< 5.00
"BL-41 (Burkitt lymphoma, suspension)",0.625,5.60,0.99,< 5.00,0.991,0.988,< 5.70,0.918,4.76,0.53,5.83,0.051,> 7.40,0.435,8.86,< 5.00
"BV-173 (chronic myeloid leukaemia, suspension)",0.87,4.83,0.793,5.40,0.944,0.746,6.24,0.821,5.01,0.741,5.26,0.522,6.14,0.79,7.91,< 5.00
"Becker (glioma, adherent)",0.964,< 4.70,0.982,< 5.00,0.915,0.886,< 5.70,0.984,< 4.70,0.923,< 4.70,0.91,< 4.99,0.565,8.51,< 5.00

Cell Line,AUC (Y-39983),pIC50 (Y-39983),AUC (PLX4720; screen: GDSC drug entry 1036),pIC50 (PLX4720; screen: GDSC drug entry 1036),AUC (PLX4720; [1]),AUC (AZD-0530),pIC50 (AZD-0530),AUC (Pyrimethamine),pIC50 (Pyrimethamine),AUC (TPCA-1),pIC50 (TPCA-1),AUC (PHA-793887),pIC50 (PHA-793887),AUC (Epothilone B),pIC50 (Epothilone B),pIC50 (PLX4720; [1])
"C2BBe1 (large intestine, adherent)",0.985,< 4.70,0.95,< 5.00,0.984,0.827,5.84,0.981,< 4.70,0.831,4.82,0.886,< 4.99,0.716,8.05,< 5.00
"CAS-1 (glioma, adherent)",0.979,< 4.70,0.969,< 5.00,0.972,0.974,< 5.70,0.976,< 4.70,0.934,< 4.70,0.802,5.13,0.772,7.77,< 5.00
"CCRF-CEM (lymphoblastic leukaemia, suspension)",0.799,5.10,0.939,< 5.00,0.981,0.988,< 5.70,0.819,5.04,0.565,5.74,0.486,6.23,0.579,8.50,< 5.00
"CHP-126 (neuroblastoma, suspension)",0.956,< 4.70,0.94,< 5.00,0.981,0.974,< 5.70,0.931,< 4.70,0.936,< 4.70,0.883,< 4.99,0.841,7.64,< 5.00
"CMK (acute myeloid leukaemia, suspension)",0.868,4.86,0.971,< 5.00,0.964,0.991,< 5.70,0.63,5.57,0.184,6.76,0.516,6.15,0.449,8.83,< 5.00
"COLO-320-HSR (large intestine, suspension)",0.957,< 4.70,0.989,< 5.00,0.985,0.977,< 5.70,0.666,5.47,0.711,5.35,0.984,< 4.99,0.631,8.36,< 5.00
"COLO-668 (small cell lung carcinoma, adherent)",0.949,< 4.70,0.977,< 5.00,0.988,0.989,< 5.70,0.959,< 4.70,0.862,4.77,0.977,< 4.99,0.865,7.55,< 5.00
"COLO-684 (endometrium, suspension)",0.935,< 4.70,0.969,< 5.00,0.983,0.982,< 5.70,0.732,5.20,0.832,4.82,0.779,5.33,0.671,8.20,< 5.00
"COLO-824 (breast, adherent)",0.955,< 4.70,0.987,< 5.00,0.987,0.988,< 5.70,0.982,< 4.70,0.813,4.95,0.935,< 4.99,0.83,7.68,< 5.00
"COLO-829 (melanoma, adherent)",0.975,< 4.70,–,–,0.792,0.959,< 5.70,0.581,5.64,0.92,< 4.70,0.892,< 4.99,0.955,< 7.49,5.14
"COR-L95 (small cell lung carcinoma, adherent)",0.926,< 4.70,0.987,< 5.00,0.985,0.985,< 5.70,0.892,< 4.70,0.948,< 4.70,0.795,5.25,0.964,< 7.49,< 5.00
"SIG-M5 (acute myeloid leukaemia, suspension)",0.626,5.60,–,–,–,0.994,< 5.70,0.843,5.03,0.36,6.24,0.098,7.26,0.23,9.37,–
"SK-MEL-2 (melanoma, adherent)",0.985,< 4.70,–,–,–,0.985,< 5.70,0.92,< 4.70,0.96,< 4.70,0.795,5.31,0.669,8.22,–
"SU-DHL-1 (anaplastic large cell lymphoma, suspension)",0.997,< 4.70,–,–,–,0.994,< 5.70,0.871,4.98,0.997,< 4.70,0.435,6.35,0.988,< 7.49,–
"TALL-1 (T-cell lymphoblastic leukaemia, suspension)",0.941,< 4.70,–,–,–,0.988,< 5.70,0.973,< 4.70,0.88,4.72,0.866,5.08,0.986,< 7.49,–
"TE-441-T (rhabdomyosarcoma, adherent)",0.977,< 4.70,–,–,–,0.981,< 5.70,0.945,< 4.70,0.837,4.90,0.793,5.35,0.847,7.65,–
"UACC-812 (breast, adherent)",0.991,< 4.70,–,–,–,0.925,< 5.70,0.983,< 4.70,0.977,< 4.70,0.99,< 4.99,0.982,< 7.49,–
